# In all, about 4,100 sequences were measured (“relative CpG methylation activity (normalised to average over all NNNCGNNN flanks)”: median about 0.87, highest 2% from about 2.4 on). The list shows a part of the results.
# Biological target: DNMT3A catalytic domain (mouse) (UniProt O88508)
# Test: relative CpG methylation activity (normalised to average over all NNNCGNNN flanks) (relative (1 = mean)); higher = more methylation of the central CpG
# Details: system: in vitro, murine catalytic domain; CpG state: hemimethylated substrate pool; residues: 608-908
# Experimental: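 Deep enzymology: a pool of dsDNA substrates with a central CpG flanked by 10 random nucleotides on each side was methylated by the murine DNMT3A or DNMT3B catalytic domain (0.8 mM SAM, 37 °C, 60 min). Methylation was then read out by hairpin ligation, bisulfite conversion and NGS. Values are the average methylation of each NNNCGNNN context (±3 flanks; the outer flanks are random and averaged over), normalised to the overall mean, so 1 = average activity.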
row,Sequence,relative CpG methylation activity
1,AGGCGCGC,0.467
2,GGTCGGAC,0.604
3,AGCCGTTC,0.982
4,ACTCGATG,0.513
5,GCTCGCAA,1.07
6,CTGCGATG,0.813
7,CTTCGTAA,1.85
8,TCTCGTAG,0.833
9,CGACGAGG,0.271
10,GATCGGAA,0.174
11,TAACGGAT,0.824
12,AGACGGGC,0.598
13,TAACGCAT,0.689
14,GATCGGCA,0.478
15,TGTCGTCT,1.08
16,CACCGTGA,0.394
17,ACCCGCAG,0.434
18,TCACGCTC,2.5
19,TTCCGGAT,1.4
20,CGGCGTAC,0.625
21,GCTCGGGG,0.541
22,GCACGTTG,0.579
23,TAACGAGA,0.482
24,TTACGATG,1.45
25,CGCCGGAA,0.719

row,Sequence,relative CpG methylation activity
1,TGGCGGAA,0.602
2,TGACGCGT,0.486
3,AACCGTAA,1.09
4,ACCCGCCA,1.19
5,GTGCGATG,0.795
6,CTACGATC,2.4
7,CGGCGTAG,0.353
8,ACTCGACA,1.02
9,GAACGCGG,0.208
10,GCCCGTAC,1.1
11,CTCCGGGC,1.49
12,CCCCGAGC,1.81
13,GGGCGCCA,1.15
14,AACCGGGC,1.05
15,CACCGATA,0.729
16,CGGCGTTA,0.492
17,TAACGTAC,0.748
18,TCCCGGAC,1.06
19,CAGCGGCT,0.413
20,CGGCGTGA,0.345
21,CGTCGCAA,0.741
22,CGTCGGCA,0.75
23,GCCCGAGC,1.7
24,GCTCGGTC,1.31
25,CTACGGGT,1.9

row,Sequence,relative CpG methylation activity
1,GCCCGTTA,1.1
2,GACCGTCT,1.43
3,CCTCGCCG,1.68
4,TTCCGCAT,1.78
5,AAGCGCTA,0.729
6,AAGCGTAT,0.285
7,ACGCGTAC,0.804
8,CATCGTCT,1.43
9,CAGCGCAA,0.544
10,CCTCGATT,0.766
11,TACCGTGT,0.243
12,CGCCGTAC,0.711
13,CAACGCCG,1.12
14,TTACGTTT,1.72
15,CCGCGATG,0.571
16,CTACGCGC,2.25
17,TTGCGATT,1.05
18,GGTCGCAA,0.443
19,CTCCGGCA,1.32
20,CAGCGTAC,0.544
21,CGGCGTCA,0.855
22,GTTCGCAC,1.19
23,CACCGTAC,0.709
24,CTACGTAG,1.55
25,AAGCGTCT,0.915

row,Sequence,relative CpG methylation activity
1,ACACGTTG,0.878
2,TACCGCAA,0.763
3,TGCCGCCT,1.76
4,CTCCGTAA,1.82
5,AAGCGGAG,0.206
6,CACCGCCG,1.54
7,GGACGGTC,1
8,TCGCGCCT,1.7
9,CGGCGGTG,0.231
10,TTTCGGCT,0.887
11,GTTCGTCA,1.79
12,GCCCGACT,1.21
13,GAGCGGGT,0.411
14,ATACGGTA,1.58
15,TGGCGAGT,0.53
16,CTTCGTTC,1.18
17,TCGCGGTG,0.556
18,TAGCGTAG,0.208
19,TAGCGGGA,0.263
20,AGTCGCTG,1.05
21,CCCCGATC,1.92
22,TAACGATA,0.685
23,TGCCGACG,0.68
24,ATTCGAAG,0.433
25,CAGCGTAT,0.215

row,Sequence,relative CpG methylation activity
1,GGTCGAAA,0.512
2,AATCGGGA,0.138
3,GCTCGGCC,1.3
4,CTACGTAA,2.4
5,AACCGGAG,0.25
6,TGGCGGCC,1
7,CTACGGAA,1.68
8,TAACGTAT,0.524
9,TTCCGGAG,0.682
10,CGCCGGTC,0.991
11,AACCGCAT,0.826
12,ACCCGTTC,1.26
13,GGTCGGTG,0.0893
14,TGGCGTGT,0.025
15,CCCCGGAG,0.407
16,TTGCGAAC,1.77
17,CGTCGTAC,0.68
18,TAGCGCCC,1.24
19,AGTCGTTT,0.494
20,TATCGTTC,0.692
21,CATCGGAG,0.238
22,CTCCGTCC,2.65
23,GGCCGATT,0.737
24,CAACGTGC,0.55
25,GTACGACA,1.91

row,Sequence,relative CpG methylation activity
1,GTGCGGAA,0.921
2,TTACGGTT,1.67
3,GACCGGTA,0.507
4,GTACGATG,1.07
5,TCACGTCG,2.02
6,ACGCGTGA,0.47
7,TAACGGCA,0.902
8,CGGCGATT,0.328
9,CCACGTGC,0.851
10,CCACGTGG,0.324
11,CCTCGCCA,1.67
12,AGACGCAC,1.23
13,GGGCGCGG,0.143
14,AGACGCGT,0.843
15,TTCCGTTC,1.43
16,GAGCGACT,0.672
17,CATCGGAA,0.388
18,CCGCGTGT,0.25
19,TTTCGAGA,0.581
20,TACCGTCT,1.4
21,TCCCGTTC,1.35
22,CCTCGTTA,1.25
23,CAACGTCC,1.67
24,CAGCGTGG,0.106
25,CAGCGGGT,0.205

row,Sequence,relative CpG methylation activity
1,CAACGATC,1.07
2,AGTCGAGA,0.289
3,ATCCGGCA,1.55
4,TCACGTAG,1.04
5,GTACGCGT,1.75
6,CGACGGGA,0.539
7,TCCCGCTT,1.84
8,GATCGCGC,0.445
9,GGTCGGCA,0.489
10,CCGCGCGC,0.889
11,AACCGTGG,0.153
12,CCCCGTTT,0.954
13,TGTCGACA,0.462
14,CGACGCCC,1.65
15,AGACGCCA,1.09
16,CACCGAGG,0.366
17,TCGCGGCC,1.01
18,CTGCGCCT,1.81
19,GACCGCGA,0.789
20,AAGCGCGG,0.216
21,TAGCGTGT,0.153
22,GATCGATT,0.205

# Reference: the supplement of paper PMC7335073
